# According to the supplement of paper PMC9446081:
# In all, about 39,000 compounds went through this assay and about 220 (0.56%) showed activity. Some of the results follow.
# System: Escherichia coli K-12 BW25113
# Assay: relative growth (OD600 normalised to plate interquartile mean) (fraction); higher = less growth inhibition, active = 0.2 or less
# Details: 50 µM; LB; incubation time: overnight (16-24 h)
# 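Further: static incubation at 37 °C against the wild-type strain, values averaged over two biological replicates.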
row,Compound,relative growth
1,COc1ccccc1NC(=O)N(C)C[C@H]1OCc2ccccc2-c2c(n(C)c3ccccc23)C(=O)N([C@H](C)CO)C[C@@H]1C,inactive: 1.03
2,CCS(=O)(=O)Nc1ccc2c(c1)C(=O)N(C)C[C@@H](OC)[C@H](C)CN(CCC(F)(F)F)[C@H](C)CO2,inactive: 0.985
3,COc1ccc(NC(=O)Nc2ccc3c(c2)C(=O)N([C@H](C)CO)C[C@@H](C)[C@@H](CN(C)Cc2ccc(Oc4ccccc4)cc2)O3)cc1,inactive: 1.01
4,C[C@H](CO)N1C[C@H](C)[C@H](CN(C)C(=O)Nc2ccc(C(F)(F)F)cc2)Oc2ccc(NC(=O)CCCCCC(=O)Nc3ccccc3N)cc2CC1=O,inactive: 0.992
5,Cc1ccc(S(=O)(=O)N(C)C[C@@H]2Oc3ccc(NC(=O)Nc4cccc5ccccc45)cc3C(=O)N([C@H](C)CO)C[C@H]2C)cc1,inactive: 1.01
6,C[C@H](CO)N1C[C@H](C)[C@@H](CN(C)C)OCCCC[C@H](C)Oc2ccc(NS(=O)(=O)c3cn(C)cn3)cc2C1=O,inactive: 0.984
7,Cn1c(=O)c2cn3ncccc3c2n(C)c1=O,inactive: 0.974
8,C[C@@H]1CN([C@@H](C)CO)S(=O)(=O)c2ccc(C#Cc3ccccc3)cc2O[C@H]1CN(C)S(C)(=O)=O,inactive: 1.02
9,Cc1ccc(S(=O)(=O)N(C)C[C@H]2Oc3ncc(Br)cc3C(=O)N([C@@H](C)CO)C[C@@H]2C)cc1,inactive: 0.982
10,O=C(Nc1ccc2c(c1)[C@@H]1C[C@@H](CC(=O)N3CCc4ccccc4C3)O[C@@H](CO)[C@@H]1O2)C1CCOCC1,inactive: 1
11,CO[C@@H](CN(C)C(=O)c1ccc2c(c1)OCO2)[C@H](C)CN([C@@H](C)CO)S(=O)(=O)c1ccc(F)cc1,inactive: 0.887
12,COc1cccc(S(=O)(=O)N(C)C[C@H]2Oc3cc(C#CCN(C)C)ccc3S(=O)(=O)N([C@@H](C)CO)C[C@@H]2C)c1,inactive: 1.01
13,C[C@H]1CCCCO[C@H](CN(C)S(=O)(=O)c2ccccc2)[C@@H](C)CN([C@@H](C)CO)C(=O)c2cc(NS(C)(=O)=O)ccc2O1,inactive: 1.02
14,C[C@@H]1CN([C@@H](C)CO)C(=O)Cc2cc(NC(=O)Cc3cn(C)c4ccccc34)ccc2O[C@H]1CN(C)Cc1ccc(C(F)(F)F)cc1,inactive: 1.02
15,C[C@H](CO)N1C[C@H](C)[C@H](CN(C)Cc2ccc(C(=O)O)cc2)Oc2ccc(NC(=O)Nc3ccc(C(F)(F)F)cc3)cc2C1=O,inactive: 0.955
16,COc1ccc(S(=O)(=O)Nc2ccc3c(c2)C(=O)N([C@@H](C)CO)C[C@@H](C)[C@@H](CN(C)Cc2ccc(Oc4ccccc4)cc2)O3)cc1,inactive: 0.974
17,C[C@@H]1CCCCO[C@@H](CN(C)Cc2ccncc2)[C@H](C)CN([C@@H](C)CO)C(=O)c2cc(NC(=O)C3CCCCC3)ccc2O1,inactive: 1.01
18,C[C@@H]1CCCCO[C@H](CN(C)CC2CCCCC2)[C@@H](C)CN([C@H](C)CO)C(=O)c2cc(NS(=O)(=O)c3cccs3)ccc2O1,inactive: 1

row,Compound,relative growth
1,COc1cc(S(=O)(=O)NCCN2CCN(S(=O)(=O)c3cc(OC)c(Cl)cc3OC)CC2)c(OC)cc1Cl,inactive: 0.978
2,C[C@H](CO)N1C[C@H](C)[C@@H](CN(C)C(=O)Nc2ccc3c(c2)OCO3)OCCCC[C@H](C)Oc2ccc(NC(=O)Nc3ccc4c(c3)OCO4)cc2C1=O,inactive: 1.01
3,C[C@@H]1CCCCO[C@@H](CN(C)C(=O)Nc2ccc(F)cc2)[C@H](C)CN([C@H](C)CO)C(=O)c2cc(NS(=O)(=O)c3ccccc3)ccc2O1,inactive: 1.02
4,Cn1c(NCCN(CCO)CCCc2ccc([N+](=O)[O-])cc2)cc(=O)n(C)c1=O,inactive: 1.03
5,CO[C@H]1CN(C)C(=O)c2ccc(NS(=O)(=O)CC(F)(F)F)cc2OC[C@@H](C)N(Cc2nccs2)C[C@@H]1C,inactive: 0.976
6,CN(C)C1C(O)=C(C(N)=O)C(=O)C2(O)C(O)=C3C(=O)c4c(O)cccc4C(C)(O)C3C(O)C12.Cl (stereo unspecified),active: 0.0578
7,C[C@H]1CCCCO[C@H](CN(C)C(=O)Nc2ccccc2)[C@@H](C)CN([C@@H](C)CO)C(=O)c2cc(NC(=O)CCC(F)(F)F)ccc2O1,inactive: 0.991
8,C[C@@H]1CCCCO[C@H](CN(C)C(=O)Nc2ccc(C(F)(F)F)cc2)[C@H](C)CN([C@@H](C)CO)C(=O)c2cc(NC(=O)NC3CCCCC3)ccc2O1,inactive: 1
9,COc1ccc(S(=O)(=O)N(C)C[C@@H]2Oc3c(NC(=O)c4cnccn4)cccc3C(=O)N([C@H](C)CO)C[C@H]2C)cc1,inactive: 0.99
10,C[N+](C)(C)CCCC[C@@H]1NC(=O)[C@@H]2C[C@H](C(=O)NCc3ccc(F)cc3)[C@H](c3ccc(O)cc3)N2C1=O,inactive: 0.986
11,C[C@@H]1CN([C@@H](C)CO)S(=O)(=O)c2ccc(C#CC3CC3)cc2O[C@H]1CN(C)Cc1ccc(F)cc1,inactive: 1.01
12,C[C@H](CO)N1C[C@H](C)[C@H](CN(C)S(=O)(=O)c2cccs2)Oc2ncc(Br)cc2C1=O,inactive: 0.898
13,C[C@@H]1CN([C@H](C)CO)C(=O)c2cc(NS(=O)(=O)c3ccc(F)cc3)ccc2O[C@@H](C)CCCCO[C@@H]1CN(C)CC1CCCCC1,inactive: 0.955
14,COc1ccc([Si](C)(C)[C@@H]2[C@@H](CCO)O[C@]3(C(=O)N(Cc4ccccc4)c4ccc(N5C(=O)c6ccccc6Oc6ccccc65)cc43)[C@H]2C)cc1,inactive: 1.02
15,C[C@H]1CN([C@@H](C)CO)C(=O)Cc2cc(NS(=O)(=O)c3ccccc3)ccc2O[C@H]1CN(C)Cc1ccncc1,inactive: 0.971
16,CC(C)OC(=O)[C@H](C)N[P@](=O)(OC[C@H]1O[C@@H](n2ccc(=O)[nH]c2=O)[C@@](C)(O)[C@@H]1O)Oc1ccccc1,inactive: 0.961
17,C[C@H](O)C#Cc1ccc2c(c1)O[C@@H](CN(C)C(=O)Cc1ccccn1)[C@H](C)CN([C@@H](C)CO)S2(=O)=O,inactive: 0.984
18,C[C@@H]1CN([C@@H](C)CO)C(=O)c2cc(NC(=O)c3ccccc3)ccc2O[C@@H](C)CCCCO[C@@H]1CN(C)CC1CCCCC1,inactive: 0.979
